# Data published in the supplement of paper PMC12217912.
# The list shows a part of the results. The full chains were built here from the parent and the listed change. Values near 0.05 are background.
# B1: TEV protease; numbered along this chain (parent)
# chain: MGESLFKGPRDYNPISSSICHLTNESDGHTTSLYGIGFGPFIITNKHLFRRNNGTLVVQSLHGVFKVKDTTTLQQHLVDGRDMIIIRMPKDFPPFPQKLKFREPQREERICLVTTNFQTKSMSSMVSDTSCTFPSGDGIFWKHWIQTKDGQCGSPLVSTRDGFIVGIHSASNFTNTNNYFTSVPKNFMELLTNQEAQQWVSGWRLNADSVLWGGHKVFMVKPEEPFQPVKEATQL
# Variants of: B1
# Test: raw area under fraction-flipped curve 0-4 h after induction (AUC4h, not background-subtracted), DNA-recorder readout of cleavage of the substrate (dimensionless); higher = more cleavage of the substrate by the protease variant
# Details: temperature: 34 °C; time window: 0-4 h after rhamnose induction
# 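Note: Bxb1 expression induced with 0.2% (w/v) L-rhamnose at OD600 near 0.5, cultures sampled hourly, flipped fraction per protease–substrate barcode pair counted by paired-end Illumina sequencing.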
Variant,area with substrate ENLFFQS,area with substrate ENLMFQS,area with substrate ENLNFQS,area with substrate ENLPFQS,area with substrate ENLQFQS,area with substrate ENLRFQS,area with substrate ENLSFQS,area with substrate ENLWFQS,area with substrate ENLEFQS,area with substrate ENLLFQS,area with substrate ENLVFQS,area with substrate ENLDFQS,area with substrate ENLIFQS,area with substrate ENLHFQS,area with substrate ENLKFQS,area with substrate ENLTFQS,area with substrate ENLGFQS
Q74H,0.0722,0.0638,0.0529,0.0319,0.0647,0.0688,0.0697,0.0855,–,–,–,–,–,–,–,–,–
L205F,0.104,–,0.0788,0.0522,–,–,–,–,0.0513,0.0475,0.0757,–,–,–,–,–,–
L205N,–,0.0789,0.0684,–,–,–,0.0621,–,0.0626,0.0632,–,0.0646,0.0694,–,–,–,–
E223F,0.0753,–,0.062,0.0262,0.0639,0.0421,–,–,0.0675,0.0538,–,0.0465,0.0628,0.0564,0.0622,–,–
G202V,0.0573,–,0.0528,0.0679,0.0604,–,0.064,0.0534,0.0565,0.063,–,0.0614,–,0.07,0.0576,–,–
E108P,0.0569,–,0.0361,0.0756,–,0.0636,0.0468,–,0.0781,–,–,–,0.0615,0.0617,0.0622,0.052,–
P225W,0.101,0.0581,–,0.0667,0.0776,0.0458,0.051,0.0482,0.0735,0.0649,0.0548,0.0812,–,–,0.0728,0.0728,–
G35L,0.0714,–,0.0389,0.0466,–,–,–,0.0511,–,–,0.0401,–,–,–,–,–,–
G35M,0.0567,–,–,–,–,–,–,–,–,–,–,–,–,–,–,–,–
L191I,0.0856,–,0.0616,–,0.0525,0.053,0.0523,–,–,0.061,–,0.0596,0.0625,0.0763,0.0675,–,–
V210G,0.0383,–,0.0583,0.0612,0.0572,0.0655,0.0499,–,0.0669,0.0738,–,0.0644,0.0571,–,–,–,0.0825
S4E,0.108,–,0.0719,–,–,0.0766,0.0697,0.0736,0.0825,–,–,–,–,0.0801,0.0798,–,–
Q105T,0.0817,–,–,0.0699,0.0681,0.0665,–,–,0.0556,0.0684,–,–,0.073,0.0679,0.0839,–,–
Q197C,–,0.0933,0.0558,–,–,–,–,0.0711,–,0.0907,0.073,0.0619,–,0.0717,0.0979,–,0.0757
P94D,0.085,0.0686,0.0636,0.0542,–,–,0.0715,–,0.0616,–,0.116,–,–,0.0954,0.0753,–,0.0634
H62N,0.0768,–,0.0686,–,0.0519,0.0751,–,–,–,–,–,–,–,0.0711,0.0742,–,0.0628
H215G,0.061,–,0.0694,0.02,0.0655,–,–,0.0552,0.0709,0.0533,0.0952,0.0662,0.0505,0.0644,0.0466,0.0391,0.0744
N193P,0.0575,–,0.0754,–,0.0637,0.0757,0.0678,0.0698,–,0.0684,0.0823,0.0588,0.0824,0.0549,0.063,–,0.05
G162H,0.0765,0.0701,0.0456,0.0532,0.0606,0.0544,–,–,0.055,0.0665,–,–,0.0714,0.0516,0.0779,–,0.0765
R204E,0.0872,0.0762,0.0663,0.0692,0.0684,0.0788,0.0635,–,–,–,–,0.0664,–,–,0.0938,–,–
G80H,0.0818,0.119,0.0629,0.056,0.0767,0.0901,–,–,0.0666,0.0728,–,–,–,–,0.0865,0.0756,–
G213S,0.0597,–,0.0427,0.0593,–,0.0692,0.0579,–,0.0761,–,0.0581,–,–,–,0.0685,–,0.0717
P222V,0.0792,–,0.0758,0.0601,0.0703,0.0717,0.0663,0.0631,0.0669,0.0646,0.088,0.0631,0.058,0.0584,0.0787,0.0561,–
W203R,0.064,0.0662,0.0623,0.0637,0.073,–,0.0659,0.066,–,0.0645,–,0.0499,0.0504,0.0666,0.0841,–,0.0579
